Test results as given in PubChem BioAssay AID493208 (National Center for Advancing Translational Sciences (NCATS), 2011).
About 340 (0.77%) of roughly 44,000 compounds were called active. Not shown: some 5% with an inconclusive outcome. The call rests on the fitted dose curve; in most records, active means well fitted inhibition curve with a large enough effect; inconclusive means small, poorly fitted or top-dose-only effect; inactive means flat fitted curve, though single readings scatter. This is one part of the list.

experiment: Acumen qHTS Assay for Inhibitors of the mTORC1 Signaling Pathway in MEF (Tsc2-/-, p53-/-) Cells: Sytravon; conditions: phospho-rpS6 immunofluorescence/PI, 24 h; series mostly up to 38.3 µM; activity change, negative = inhibition: at the top concentration;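 further: plate controls were DMSO for no effect and rapamycin for full effect; nearly all actives have a fitted effect of over 50% in size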
How it was run: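 Cell-based qHTS: Tsc2-/- p53-/- MEF, 24 h cpd, 37 °C; fix/perm, anti-phospho-S6 Alexa-488 + PI; Acumen 488 nm scan; pS6/PI ratio, % positive cells; rapamycin 7.5 nM = inhibition ref; PI count = viability.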

| Compound | activity change, negative = inhibition |
| --- | --- |
| COc1ccc(S(=O)(=O)c2cn(Cc3ccccc3)c3cc(F)c(F)cc3c2=O)cc1 | inactive: 3.41% |
| CN1C(=O)c2[nH]nc(-c3ccc(F)cc3)c2C1c1ccccn1 (configuration not stated) | inactive: -2.71% |
| COc1ccc(Nc2cc(C(=O)NCc3ccccc3)c3ccccc3n2)cc1OC | inactive: 2.13% |
| O=c1c(S(=O)(=O)c2ccc(Cl)cc2)cn(Cc2ccc(F)cc2)c2ccc(F)cc12 | inactive: -13.6% |
| CCOc1ccc(C(=O)NCc2ccc3c(c2)CCN3C(=O)c2ccc(C)cc2)cc1OCC | inactive: -0.553% |
| CCCCn1c(SCC(=O)Nc2ccc(F)cc2)nc2c(sc3ccccc32)c1=O | inactive: 2.23% |
| CC(C)c1ccc(NC(=O)Cn2nnc(C(=O)NCc3cccs3)c2N)cc1 | inactive: -1.28% |
| Cc1ccc2oc3c(c(=O)c2c1)C(c1ccc(OCC(N)=O)cc1)N(Cc1ccc2c(c1)OCO2)C3=O (configuration not stated) | inactive: 5.79% |
| CNC(=O)CSc1nnc(NC(=O)Nc2ccccc2)s1 | inactive: -4% |
| CCOc1ccccc1N(CC(=O)Nc1ccc(OC)c(Cl)c1)S(=O)(=O)c1ccccc1 | inactive: -2.67% |
| O=C(CSc1nnc(-c2ccc(Br)cc2)n1-c1ccccc1)c1ccccc1 | inactive: 2.24% |
| COc1ccc(NC(=O)C(=O)NCC2(c3ccccc3)CCCC2)c(OC)c1 | inactive: 4.31% |
| COc1ccc(C(=O)NCC(c2ccc3c(c2)OCO3)N2CCN(c3ccc(F)cc3)CC2)cc1 (configuration not stated) | inactive: 0.739% |
| Cc1ccc(N(CC(C)C)S(=O)(=O)c2nnc(NC(=O)c3cccs3)s2)cc1 | inactive: 6.41% |
| CCOCN(C(=O)Cn1cnc2cc(C)c(C)cc21)c1c(C)cccc1CC | inactive: -5.83% |
| CCc1ccccc1NC(=O)c1cc(-c2ccc3c(c2)OCO3)on1 | inactive: 3.21% |
| CCOc1ccc(/C=C/c2nc(C#N)c(N3CCN(c4ccccc4)CC3)o2)cc1 | inactive: 2.55% |
| COc1ccc(CNC(=O)CN2C(=O)COc3ccc(S(=O)(=O)N4CCOCC4)cc32)cc1 | inactive: 1.93% |
| COc1ccccc1CNC(=O)Cn1c(=O)ccc2cc(S(=O)(=O)N3CCCC3)ccc21 | inactive: -6.4% |
| CCOc1ccc(N(CC)S(=O)(=O)N2CCCC(C(=O)NCCc3ccccc3OC)C2)cc1 (configuration not stated) | inactive: 1.17% |
| CC1CCCCN1C(=O)CSc1nnc(-c2ccccc2Cl)o1 (configuration not stated) | inactive: -9.07% |
| COc1ccc(-c2cn3nc(N4CCC(C(=O)Nc5ccc(C)cc5)CC4)sc3n2)cc1 | inactive: -8.05% |
| Cc1ccc(O)c(C2=Nc3ccccc3N=C(c3cccc(F)c3)C2)c1 | inactive: -2.8% |
| O=C(Nc1ccc(C(=O)N2CCN(c3ccc(Cl)cc3)CC2)cc1)c1nsc2ccccc12 | inactive: 0% |
| Cc1ccc2oc(-c3cc(NC(=O)c4cccs4)cc(C)c3O)nc2c1 | inactive: 8.37% |

| Compound | activity change, negative = inhibition |
| --- | --- |
| COc1ccc(Br)cc1CNC(=O)C1COc2ccccc2C1 (configuration not stated) | inactive: -4.9% |
| Cc1ccc(-n2c(SCC(N)=O)nc3c([nH]c4ccccc43)c2=O)cc1 | inactive: 1.57% |
| Cc1ccc(Cn2c(C)c(CNC(C)c3ccccc3)c(C(=O)O)c2C)cc1 (configuration not stated) | inactive: -0.622% |
| Cc1ccc(Cl)cc1N1CCN(c2ncnc3onc(-c4ccc(F)cc4)c23)CC1 | inactive: -9.09% |
| Cc1ccc(S(=O)(=O)Cc2nc(-c3ccc(C(=O)NCc4ccccc4F)cc3)oc2C)cc1 | inactive: -20% |
| CCOC(=O)N1CCN(C(=O)CN(c2cc(C)ccc2OC)S(=O)(=O)c2ccc(C)cc2)CC1 | inactive: -1.8% |
| CC(C)(C)c1ccc(-c2noc(CCC(=O)Nc3cccc(Cl)c3)n2)cc1 | inactive: 0.0182% |
| Cc1ccc(-c2nnc(Nc3cccc(C(F)(F)F)c3)c3ccccc23)cc1S(=O)(=O)N1CCOCC1 | inactive: -0.94% |
| CCc1ccc(-n2nc(C)c3c(C(=O)Nc4cc(C)ccc4C)cc(C)nc32)cc1 | inactive: 3.28% |
| COC(=O)c1sc2cccc(F)c2c1S(=O)(=O)N1CCN(c2ccc(C)cc2C)CC1 | inactive: -4.68% |
| CC1CCN(S(=O)(=O)c2nnc(NC(=O)c3cccc(F)c3)s2)CC1 | inactive: -11.4% |
| Cc1cccc(N2CCN(C(=O)c3ccc4c(c3)c(C)c(C)n4C)CC2C)c1 (configuration not stated) | inactive: -2.85% |
| Cc1ccc(NC(=O)c2cc(S(=O)(=O)N3CCCC3)c[nH]2)c(C)c1 | inactive: -6.94% |
| COc1ccc(OC)c(S(=O)(=O)NCCc2csc3nc(-c4ccccc4)nn23)c1 | inactive: 0.166% |
| COc1ccccc1N1CCN(c2cc(C)nc3nc(-c4ccc(Cl)cc4)nn23)CC1 | inactive: -1.95% |
| COc1nc(-c2ccc(C)cc2)ccc1-c1noc(-c2ccc(C(C)(C)C)cc2)n1 | inactive: 12.5% |
| CCc1c(C)c2ccc(O)c(CN3CCN(c4ccccc4)CC3)c2oc1=O | inactive: 0.481% |
| CCOc1ccc2oc(=O)cc(CN3CCN(c4ccc(Cl)cc4)CC3)c2c1 | inactive: -0.447% |
| CC(=O)N1CCc2cc(Br)cc(S(=O)(=O)CCC(=O)Nc3ccc(C)cc3Cl)c21 | inactive: 1.91% |
| CCOC(=O)c1c(NC(=O)COc2ccc(Cl)cc2C)sc(C(C)=O)c1C | inactive: 8.29% |
| CCN1CCN(c2cc(C)c3cc(NC(=O)c4ccccc4F)ccc3n2)CC1 | inactive: -25.4% |
| CCc1cccc(C)c1NC(=O)CN(C)S(=O)(=O)c1cccc2nsnc12 | inactive: -4.6% |
| Cc1ccc(N2CCN(c3nc4c(S(=O)(=O)c5ccc(C)c(C)c5)nnn4c4ccccc34)CC2)c(C)c1 | inactive: -3.28% |
| Cc1c(C(=O)N(Cc2ccc(N(C)C)cc2)CC2CCCO2)oc2ccc(Br)cc12 (configuration not stated) | inactive: -6.3% |
| Cc1ccc(S(=O)(=O)c2cn(C)c3cc(N4CCCCC4)c(F)cc3c2=O)cc1 | inactive: -0.407% |

| Compound | activity change, negative = inhibition |
| --- | --- |
| COc1ccc(C)cc1NC(=O)N1CCC(CN2CCC(C)CC2)CC1 | inactive: 0.224% |
| CNC(=O)C1CCC(Cn2c(=O)c3sccc3n(CC(=O)NCc3cccc(OC)c3)c2=O)CC1 (configuration not stated) | inactive: 10.1% |
| Cc1cc(C)cc(Nc2cc(C)nc3nncn23)c1 | inactive: 0.766% |
| Cc1cccc(-c2nc3scc(CCNC(=O)c4ccc(Br)o4)n3n2)c1 | inactive: -18.9% |
| CCC(CC)C(=O)Nc1ccc(-c2cn3cccnc3n2)cc1 | inactive: 5.18% |
| COc1ccc(CNC(=O)CN2C(=O)COc3ccc(S(=O)(=O)NC4CCCC4)cc32)cc1 | inactive: 2.38% |
| COc1ccc(CCNC(=O)CCc2c(C)nc3cc(-c4ccccc4OC)nn3c2C)c(OC)c1 | inactive: -6.73% |
| CCOC(=O)N1CCN(c2ncc3c(n2)CC(c2ccccc2O)CC3=O)CC1 (configuration not stated) | inactive: 2.71% |
| COc1ccc(/C=C\c2onc(C)c2S(=O)(=O)N2CCC(C(=O)Nc3cccc(Cl)c3)CC2)cc1 | inactive: -11% |
| COc1cccc(C(=O)N2CCc3c([nH]c4ccccc34)C2c2ccc(SC)cc2)c1 (configuration not stated) | inactive: -0.338% |
| Cc1ccc(Nc2nnc(-c3cc4c(ccc5ccccc54)oc3=O)s2)cc1 | inactive: 1.8% |
| COc1cccc(CNC(=O)CCCN2C(=O)CCn3nc(-c4cccn4C)cc32)c1 | inactive: -2.26% |
| CCOC(=O)c1cccc(NC(=O)Cn2c(=O)nc(-c3ccccc3F)c3cc(Cl)ccc32)c1 | inactive: 1.57% |
| CCOc1ccc(CCNC(=O)c2csc3c2CCCCC3)cc1 | inactive: 0.863% |
| CCn1c(=O)c2cc(C(=O)N(CC(C)C)CC(C)C)sc2c2ccccc21 | inactive: -9.68% |
| Cc1ccc(CNc2ncnc3c2nc2n3CCCC2)cc1 | inactive: -1.37% |
| CCN(C(=O)CSc1nc2ccccc2n1CC(=O)NCc1ccc(OC)cc1)c1ccccc1 | inactive: 4.24% |
| CCOC(=O)c1ccc(NC(=O)CN2c3ccccc3S(=O)(=O)c3ccccc32)cc1 | inactive: -5.92% |
| CCOC(=O)c1cc(-c2ccccc2)n(CCC(=O)NC2CCCCC2)c1C | inactive: -0.287% |
| Cc1ccc2nc(CSc3nnc(NC(=O)c4cccc(Br)c4)s3)cc(=O)n2c1 | inactive: 6.8% |
| COc1ccc(-c2c(C)nn3c(N4CCN(c5ccccc5)CC4)cc(C)nc23)cc1OC | inactive: -12.5% |
| COc1ccc(NC(=O)CC2C(=O)N(c3ccc(F)cc3)C(=O)N2Cc2ccc3c(c2)OCO3)cc1 (configuration not stated) | inactive: 2.05% |
| CCCn1c(=N)c(C(=O)NC2CCCC2)cc2c(=O)n3cccc(C)c3nc21 | inactive: 3.08% |
| COc1ccc(/C=C(/C#N)c2nc(-c3ccc(-c4ccccc4)cc3)cs2)cc1OC | inactive: 7.56% |
| CCc1cccc(C)c1NC(=O)c1cc(S(=O)(=O)N2CCOCC2)cn1C | inactive: 2.78% |

| Compound | activity change, negative = inhibition |
| --- | --- |
| CCOC(=O)c1ccccc1NC(=O)n1ncc2cc(Cl)ccc21 | inactive: 1.59% |
| Cc1noc(C)c1S(=O)(=O)Nc1ccc(C(=O)Nc2ccc(Br)cc2)cc1 | inactive: 0.313% |
| COc1cc(NC(=O)CCn2cnc3ccccc3c2=O)cc(OC)c1 | inactive: -1.91% |
| CCOc1cccc(C(=O)Nc2ccc3oc(-c4cccnc4)nc3c2)c1 | inactive: -17.9% |
| CCCCOc1ccc(CNC(=O)c2cc3n(n2)CCCN(Cc2ccc(C)cc2)C3=O)cc1 | inactive: 15.8% |
| COc1ccc(OCCn2c(C)nc3cc(C)c(C)cc32)cc1 | inactive: -4.94% |
| CCCCSCCCNC(=O)c1cn(CC)c2ccc(S(=O)(=O)N3CCCCCC3)cc2c1=O | inactive: -4.25% |
| CCCOc1ccc(C(=O)Nc2cc(-c3nc4cc(C)cc(C)c4o3)ccc2C)cc1 | inactive: 3.73% |
| CN1C(=O)c2ccccc2Sc2ccc(NC(=O)N3CCN(c4ccccc4F)CC3)cc21 | inactive: -13.8% |
| Clc1ccc(CCNC(c2nnc(-c3ccccc3)o2)c2ccccc2Cl)cc1 (configuration not stated) | inactive: -0.815% |
| CC(C)NC(=O)C1CCN(C(=O)N2CCOc3ccc(Cl)cc32)CC1 | inactive: -0.609% |
| Cc1ccc(-c2noc(-c3ccc(N4CCCCC4)c([N+](=O)[O-])c3)n2)cc1 | inactive: 0% |
| CNC(=O)COc1ccc(NC(=O)c2ccc(-c3nn(C)c(=O)c4ccccc34)cc2)cc1 | inactive: 1.68% |
| CCn1c(SCc2ccccc2Cl)nc(=O)c2c(C(=O)OC)cc(C3CC3)nc21 | inactive: -8.14% |
| Cc1cc(C)c2c(-n3cccc3)c(C(=O)NCCCN3CCCCC3C)sc2n1 (configuration not stated) | inactive: -9.71% |
| COc1cc(-c2noc(-c3cc(C(C)C)[nH]n3)n2)cc(OC)c1OC | inactive: -23.2% |
| CCOC(=O)c1c(NC(=O)c2cc(=O)c3c(C)cc(C)cc3o2)sc(C(C)=O)c1C | inactive: 2.12% |
| CC(=O)Nc1nonc1-c1nnc(SCc2ccc(Cl)cc2)n1C | inactive: -3.55% |
| Cc1nn(S(=O)(=O)c2ccc(Cl)cc2)c(C)c1S(=O)(=O)N1CCCCCC1 | inactive: -5.9% |
| Cc1ccc2cccc(NC(=O)c3ccc(-c4ccc(Br)cc4)o3)c2n1 | inactive: -1.21% |
| Cc1cc(=O)c2cc(C(=O)Nc3ccccc3)ccc2[nH]1 | inactive: 2.33% |
| CCc1ccc(-n2c(-c3ccccc3)c(C)n3c4c(=O)n(C)c(=O)n(C)c4nc23)cc1 | inactive: 3.09% |
